Results as given in PubChem BioAssay AID1963576 (National Center for Advancing Translational Sciences (NCATS), 2024).
Among all 46,000 compounds or so, about 60 (0.1%) were called active. Inconclusive results (about 3%) are left out. Calls follow the shape of the dose curve; as a rule, active = well fitted inhibition curve with a large enough effect; inconclusive = small, poorly fitted or top-dose-only effect; inactive = no such curve, though single readings can be large or run the other way. This is one part of the list.

test: Primary qHTS assay for Inhibitors of ovarian cancer metastasis using an organotypic tumor microenvironment (TME) model.; also: nearly all actives have a fitted effect of over 65% in size;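 as to activity change, negative = inhibition: plate controls were DMSO wells for no effect and tomatine positive control wells for full effect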; details: SKOV3ip1-GFP adhesion/invasion on 3D omental model, fluorescence; series mostly up to 45.8 µM; activity change, negative = inhibition: at the top concentration
Method in brief: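 qHTS, 4-pt dose (0.36-46 umol/L); SKOV3ip1-GFP, 1,200 cells/well, no FBS; primary omental fibroblast/mesothelial co-culture 48 h pre-grown; 2 h RT + 16 h 37 C; PBS wash, 4% PFA; GFP count 488/509 nm.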

Activity change, negative = inhibition, inactive:
O=C(CSc1nc(-c2cccs2)nc2cc(=O)[nH]n12)Nc1ccccc1Cl -2.79%, Cc1cccc(-c2nc(CSCC(=O)N3CCN(c4cccc(C)c4C)CC3)c(C)o2)c1 11.9%, COc1ccc(/C=C/c2nc(C#N)c(N3CCC(C)CC3)o2)cc1OC -3.9%, Cc1ccc2nc3c(cc(C#N)c(=O)n3-c3nnc(SCc4ccccc4Cl)s3)c(=O)n2c1 0.955%, COc1ccc(Nc2ncc3c(n2)CCN(Cc2ccc(Br)s2)C3)c(OC)c1 -12.9%, CCOc1ccc(C(=O)Nc2cccc(-c3nc4cccnc4s3)c2C)cc1OCC -3.2%, O=C(OCc1cc(=O)n2nc(-c3cccs3)sc2n1)c1ccc(F)cc1 7.01%, CC(=O)N1N=C(c2ccc(C)cc2)CC1c1cn(-c2ccccc2)nc1-c1cccs1 (configuration not stated) -2.3%, COc1ccc(-c2n[nH]c3c2cnc2cc(OC)c(OC)cc23)cc1 1.32%, CCc1ccc(C(=O)c2cn(CC(=O)Nc3ccc4c(c3)OCO4)c3ccc(F)cc3c2=O)cc1 -12.3%, Cn1c(=O)oc2cc(S(=O)(=O)NC(Cc3ccccc3)C(=O)NCc3ccccc3Cl)ccc21 (configuration not stated) -3.45%, COc1cc(OC)c(NC(=O)c2ccc3c(c2)N(Cc2ccc(C)cc2)CCS3)cc1Cl -1.23%, Cc1ccc(CSC2=Nc3ccccc3C3=NC(CC(=O)NCc4ccc5c(c4)OCO5)C(=O)N23)cc1 (configuration not stated) 1.44%, CCCS(=O)(=O)Nc1cc(-c2cn3ccc(C)cc3n2)ccc1C 0.976%, Cc1ccc(-n2ncc(C(=O)NC3CCN(Cc4ccccc4)CC3)c2C2CCN(C(=O)OC(C)(C)C)CC2)cc1C -8.59%, COc1ccc(CCCc2nnc(SCC(=O)Nc3ccc(C)cc3)o2)cc1C 16.2%, COc1ccccc1N1CCN(S(=O)(=O)c2c(C)sc3ncn(CC(=O)Nc4ccc(C)cc4Br)c(=O)c23)CC1 1.91%, Cc1ccc(S(=O)(=O)c2nnn3c2nc(N2CCOCC2)c2sccc23)cc1C 3.63%, COc1ccc(-n2c(=O)c3ccccc3n(Cc3ccccc3Cl)c2=O)cc1 -6.71%, CCOc1ccccc1NC(=O)Cn1c(=O)n(Cc2cccs2)c(=O)c2cccnc21 0.842%, CCC(C(=O)NCCc1cc(OC)ccc1OC)n1nc(C)c2c(C)n(-c3ccccc3)nc2c1=O (configuration not stated) 2.06%, Fc1ccc(-c2nn(-c3ccc(Cl)cc3)c3c2cnc2ccc(F)cc23)cc1 1.64%, COc1ccc(OC)c(NC(=O)Cn2c(=O)cc(C)c3c(C)nn(-c4cccc(Cl)c4C)c32)c1 -7.82%, CN1CC(=O)Nc2cc(C(=O)O)ccc21 6.09%, Cc1ccc(CNC(=O)C2CCCN(c3ncnc4onc(-c5ccc(F)cc5)c34)C2)cc1 (configuration not stated) 6.74%, CCOc1ccc(NC(=O)CN2CCN(CC(=O)Nc3ccc(F)cc3F)CC2)cc1 -11.9%, CCCN1Cc2cccc(C(=O)Nc3ccccc3C(=O)OC)c2C1=O -12.8%, Cc1ccccc1-c1noc(-c2nnn(-c3ccccc3C)c2N)n1 0.851%, CCOc1ccccc1C(=O)Nc1ccc(S(=O)(=O)N(Cc2ccccc2)c2ccccc2)cc1 0.468%, CCOC(=O)c1ccccc1NC(=O)Cn1ccn2nc(-c3ccc(OCC)cc3)cc2c1=O 1.11%, COC(=O)c1c(NC(=O)COc2cccc(C(F)(F)F)c2)sc2c1CCCC2 3.81%, COc1ccc(Cc2nc3c4cnn(-c5cccc(F)c5)c4ncn3n2)cc1 9.72%, C=CC[C@@H]1C=C(C)C[C@H](C)C[C@H](OC)[C@H]2O[C@@](O)(C(=O)C(=O)N3CCCC[C@H]3C(=O)O[C@H](C(C)=C[C@@H]3CC[C@H](O)[C@H](OC)C3)[C@@H](C)[C@@H](O)CC1=O)[C@@H](C)C[C@@H]2OC 0.301%, Cc1cccc(C(=O)N(Cc2ccccc2F)C2CCS(=O)(=O)C2)c1 (configuration not stated) 6.98%, COc1ccc(N2CCN(C(=O)c3cnn(-c4ccc(OC)cc4)c3C3CCN(C(=O)OC(C)(C)C)CC3)CC2)cc1 12.4%, Cc1c(Cl)cccc1-c1ccc(/C=C(\C#N)c2nc3ccccc3[nH]2)o1 -21.6%, C=C[C@@H]1CN2CCC1C[C@H]2[C@H](O)c1ccnc2ccc(OC)cc12 (some centres not stated) -11.9%, CCCCOc1cccc(C(=O)N2CCN(CCc3ccncc3)CC2)c1 -5.36%, CCCNC(=O)N1CCCN(S(=O)(=O)c2ccc3c(ccn3CC)c2)CC1 6.99%, CCN(CC)C(=O)CSc1nc2cc3c(cc2c(=O)n1CCCC(=O)NCc1ccc(OC)cc1)OCO3 -3.73%

outcome, inactive:
Cc1ccc(C)c(N2CCN(S(=O)(=O)c3cc(C(=O)Nc4cc(Cl)cc(Cl)c4)ccc3F)CC2)c1, CCc1ccc2c(c1)NC(c1cccnc1)=NC(c1ccc(C(C)(C)C)cc1)=N2, Cc1ccc(Cl)cc1NC(=O)c1cc(S(=O)(=O)N2CCCCCC2)cn1C, CCN(c1ccccc1)c1nnc(NC(=O)Nc2ccc(C)cc2)s1, CCOc1ccccc1CNC(=O)C1CCN(c2nc3ccccc3nc2C(F)(F)F)CC1, CCN(CC)S(=O)(=O)c1ccc2c(c1)c(=O)c(C(=O)N1CCN(c3cccc(Cl)c3)CC1)cn2C, Cc1cccc(C2N=C(N)Nc3nc4ccccc4n32)c1 (configuration not stated), O=C(Nc1ccc2nc(SCC(=O)N3CCCc4ccccc43)sc2c1)c1ccc(Cl)cc1, Cc1ccc(Nc2sc(C(=O)c3ccc(F)cc3)c(N)c2S(=O)(=O)c2ccc(C)cc2)cc1, Cc1ccc(C)c(CN2C(=O)c3ccccc3S(=O)c3ccc(C(=O)N4CCOCC4)cc32)c1 (configuration not stated), COc1ccc(C(=O)Nc2nc3n(n2)C(c2ccc(Cl)cc2)C=C(c2ccccc2)N3)cc1OC (configuration not stated), CC(Sc1nc(=O)cc(N)n1CCc1ccccc1)C(=O)Nc1cccc(Cl)c1 (configuration not stated), O=C(CN1C(=O)CCSc2ccccc21)Nc1ccc(C(F)(F)F)cc1, Cc1ccc(-n2cc(C(=O)OCc3ccc(F)c(F)c3)c3ccccc3c2=O)cc1, COc1cc(C(=O)N2CCN(C(=O)COc3cccc(C)c3)CC2)cc(OC)c1OC, CCN(CC)c1ccc(NS(=O)(=O)c2cc(-c3cc(C)no3)ccc2C)c(C)c1, Cc1ccc(CCNC(=O)CN(c2ccc(C(C)C)cc2)S(=O)(=O)c2c(C)nn(C)c2C)cc1
